# Over roughly 33,000 sequences, “E-score (-0.5 to 0.5)” has its median near -0.035; the highest 2% begin near 0.34. Some of the results follow.
# Target: T1, Mot3 (UniProt P54785)
# T1 sequence: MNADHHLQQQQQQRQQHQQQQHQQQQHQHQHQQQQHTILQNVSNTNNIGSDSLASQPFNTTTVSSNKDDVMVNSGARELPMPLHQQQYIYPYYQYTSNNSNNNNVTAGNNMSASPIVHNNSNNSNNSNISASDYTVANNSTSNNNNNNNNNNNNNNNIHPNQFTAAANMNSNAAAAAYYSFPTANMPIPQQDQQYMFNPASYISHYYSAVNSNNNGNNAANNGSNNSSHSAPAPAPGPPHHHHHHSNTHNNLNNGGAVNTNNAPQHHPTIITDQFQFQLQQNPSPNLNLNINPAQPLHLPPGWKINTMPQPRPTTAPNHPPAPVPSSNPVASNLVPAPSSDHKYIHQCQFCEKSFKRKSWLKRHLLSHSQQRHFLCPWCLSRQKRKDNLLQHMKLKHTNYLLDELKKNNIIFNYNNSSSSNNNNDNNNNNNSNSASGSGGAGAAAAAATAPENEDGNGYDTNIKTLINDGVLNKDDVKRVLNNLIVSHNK
# Test: PBM E-score (8-mer binding enrichment) (E-score (-0.5 to 0.5)); higher = stronger / more preferred TF binding; most listed sequences are background and not binding sites
# Conditions: protein concentration: 200 nM; construct: GST-full length
# Method in brief: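 Yeast transcription factors, full-length or as DNA-binding domains, were expressed with a GST tag using PURExpress in vitro transcription/translation. At about 100-200 nM they were applied to universal all-10-mer Agilent arrays, double-stranded by primer extension on fresh or once-stripped slides. Fluorescent anti-GST detected bound protein, and masliner normalised the scans. E-scores for ungapped eight-base words, pooled with reverse complements, came from the Universal PBM Analysis Suite.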
row,Sequence,PBM E-score
1,TCGAGGCA,0.346
2,CAATGGCG,-0.303
3,AATACTGC,-0.195
4,CAGCCGGA,-0.0444
5,AGCCTAGA,-0.0156
6,TCCCTCCA,-0.143
7,ACGCCGCA,-0.105
8,CAGCGGTA,-0.0214
9,CATAGAAG,0.0831
10,AATTGACA,0.13
11,CGTAGGGC,-0.0174
12,AAAAGCGC,0.0608
13,GAAATGGC,-0.174
14,AACTAACC,0.204
15,ATTGTCAA,0.0347
16,ACCTAAGT,0.0986
17,CGAGAGCC,-0.186
18,CAGTTACC,0.00165
19,GATAAATC,-0.169
20,ACGGGACT,-0.273
21,AACAATAC,0.155
22,TCACCACA,-0.0873
23,ATTACAAA,0.347
24,CAGGTATC,0.056
25,CATTTTTC,0.0768

row,Sequence,PBM E-score
1,GTCTCATA,-0.0702
2,TGGAACAA,0.136
3,CTTCGCAC,0.0624
4,AGTTACGG,-0.241
5,AATGCGCA,-0.0819
6,ATGTATTG,0.303
7,AATTCCTG,0.0532
8,CAGACAGC,-0.191
9,GTGCGTAA,0.356
10,ACAAGAGC,0.0847
11,GGTTTGTA,0.221
12,ACTAATAC,0.151
13,CCATGTAC,0.327
14,CGGCCTTC,-0.235
15,AAATCGAG,-0.0527
16,ACCAGGGG,-0.19
17,GCCGTAAC,-0.146
18,CTGTTAAA,0.238
19,CGCTGCAC,-0.217
20,AAGTCTTC,-0.0674
21,AAATACGC,0.22
22,ATTCAGCG,-0.114
23,AGACCCTA,-0.0984
24,CAAGCCAC,-0.225
25,ATACGAAA,0.0852

row,Sequence,PBM E-score
1,CCGCCCGA,-0.225
2,AGATGTTC,-0.186
3,ACAATTCG,0.0496
4,GACCCACA,-0.102
5,AAATCCGC,-0.151
6,CGGCACAA,-0.0749
7,CGTGAGTA,-0.0014
8,AAGCTCGC,-0.0921
9,GACCGCCA,-0.181
10,AACTTGGG,0.0096
11,CGTACTTA,0.163
12,CACCACCC,-0.0332
13,CAACCGCA,-0.12
14,ATGATCTC,-0.0785
15,AGCCAATA,0.0294
16,CACTCTGG,-0.0358
17,CCATGGGG,-0.183
18,CACTCCCC,-0.133
19,GGAATCTA,-0.0104
20,CGAGGTGA,-0.113
21,GAGAAGGC,0.258
22,AAATAGTC,-0.199
23,CCGTCTTC,-0.315
24,AATTGCCT,0.472
25,ACGGAGAA,-0.116

row,Sequence,PBM E-score
1,AGACCCAT,-0.22
2,CTACCTGA,0.0134
3,CACCAAAG,0.0478
4,CTCCCTGA,-0.339
5,AAGCTAAC,-0.00069
6,ATATTGAG,0.0205
7,GCAGCAAC,-0.0944
8,TATGTCCA,0.0838
9,ATGAACCC,-0.0628
10,CACTTTGC,0.205
11,CGGGAGCA,-0.358
12,GGTGCAGA,-0.163
13,AACTTCCA,-0.119
14,AATCCATT,-0.0107
15,AGGCCGAT,-0.106
16,AGCGCTGG,-0.0215
17,CAACTAGG,0.153
18,GATGCAGC,-0.0695
19,ATACATCC,0.201
20,CAATTTCC,0.0755
21,ATCACTCC,-0.148
22,CACGCCCC,-0.0366
23,ATACGCAG,0.223
24,TGGTTTAA,0.167
25,ATCTCGTG,-0.127

row,Sequence,PBM E-score
1,ATTCCCCC,-0.341
2,CAATCTTC,-0.0132
3,GCCAACAC,0.154
4,GAGCTGGA,-0.205
5,GTGCAGTA,0.0488
6,ACGCTTCT,-0.0128
7,CCCGTACA,0.0344
8,CAAATATC,0.068
9,GTACCAGA,-0.0243
10,GATAGCTA,-0.0415
11,CGACTGAC,-0.228
12,ACACTAGT,-0.0367
13,AATGCCCC,-0.198
14,CGATTCGA,0.076
15,CCGCGCAA,-0.176
16,AACAATGT,0.228
17,AACCTGTG,0.357
18,AATTGGGA,-0.0908
19,TAACGCTA,0.0901
20,ATTTACTG,0.0286
21,ATGGCTTG,-0.016
22,ATCTCTGC,-0.138
23,AGATAGCG,-0.0829
24,AACGACCG,-0.163
25,AGTAAATA,0.191

row,Sequence,PBM E-score
1,CTGGGCCC,-0.241
2,CTACGAGC,-0.222
3,CCTAGTCG,-0.0943
4,ATATTTTC,0.0377
5,ACGCTGTC,0.00765
6,AAGGCCTC,-0.169
7,ACTCAAGA,-0.0682
8,CTGCACAC,0.129
9,CGACGCTC,-0.178
10,GTTTGCAA,0.195
11,AGGTTGTC,-0.0425
12,ATCTGAGC,0.0325
13,CTGAGATC,-0.132
14,AGAAGGAC,-0.198
15,ATTCGTTC,0.0248
16,GAAAACTC,0.0378
17,ACCAGGTG,-0.0408
18,GAGACCCA,-0.284
19,AACTAAGC,0.189
20,GAAAATAA,0.175
21,CATTGCTC,-0.101
22,CAGTCTTA,-0.0648
23,GGCCCGCC,-0.234
24,GTTCATTA,0.126
25,GTTTAGAA,0.168

row,Sequence,PBM E-score
1,AACTCTGC,-0.108
2,GGAAACTA,-0.0618
3,ATTTCGCG,0.0566
4,CTCCGAGA,-0.144
5,TACCTCTA,0.0212
6,CAGGGAGA,-0.25
7,ACGACGGA,0.0268
8,AAGTTGGG,-0.11
9,TCATGCGA,-0.0918
10,ATTTCAAC,0.168
11,CGAGGCAG,-0.0696
12,CGTGGTCC,-0.13
13,CCTATGAC,-0.00435
14,CGATGTCC,-0.154
15,ATCAGTGA,-0.0721
16,GGAGTTAA,-0.03
17,AAAATGCT,0.0487
18,AAGTCGAG,-0.0916
19,CCACAGGG,-0.161
20,CTGGCGAA,-0.197
21,AGTTGAGC,-0.0105
22,AGAAGGTA,0.347

# Reference: the supplement of paper PMC3334620
